Experimental data reported in PubChem BioAssay AID504832 (National Center for Advancing Translational Sciences (NCATS), 2011).
Where “and” joins values, the source holds several entries; their conditions need not be identical. Equal entries are not always repeated. Among all 310,000 compounds or so, about 18,000 (5.8%) were called active. The inconclusive results got no clear call from the source; some entries with a clear call stand among them for comparison. The call rests on the fitted dose curve; in most records, active means well fitted inhibition curve with a large enough effect; inconclusive means small, poorly fitted or top-dose-only effect, or another doubt; inactive means no such curve, though single readings can be large or run the other way. Potencies of inconclusive entries are doubtful fits and often do not repeat.
Potency means the concentration at half of the fitted maximal effect; tags describe the fitted curve by direction and shape.

Experiment: Primary qHTS for delayed death inhibitors of the malarial parasite plastid, 48 hour incubation
Conditions: P. falciparum luciferase growth in erythrocytes; series mostly up to 28.7 µM
In short: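 In quantitative HTS format, infected erythrocytes bearing luciferase-reporter parasites were treated for a single generation at 37 C. Luminescence after adding detection reagent served as the growth measure.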
For `CCCCc1nc(N2CCNCC2)c(C#N)c2c1CSC(C)(C)C2`, the Potency was inconclusive: 11.7 µM [inhibitor, single point].
In the case of `O=C(c1cc(F)c(F)cc1Cl)N1CCN(c2ccc([N+](=O)[O-])c3ncccc23)CC1`, the Potency is reported as inconclusive: 1.31 µM [inhibitor, full curve, poor fit].
With `CCN(CC)c1ccc(/C=C/c2ccc3ccc(OC)cc3[n+]2CC)cc1` the Potency was active: 1.85 µM.
With `Cc1cccc(NC(=O)CCc2nnc3ccc(NCc4ccco4)nn23)n1` the Potency was “inactive”.
With `COc1ccccc1N(C(=O)c1ccco1)C(C(=O)NC1CCCC1)c1ccncc1` (centres undefined) the Potency was inconclusive: 16.5 µM [inhibitor, partial curve, poor fit].
For `CC(CCc1ccccc1)NC(=O)c1ccccc1Cl` (centres undefined), the Potency was inconclusive: 0.0147 µM [inhibitor, full curve, poor fit].
With `COc1ccc(CCn2c(C)cc(C(=O)COC(=O)c3ccc(NC(=O)CC#N)cc3)c2C)cc1` the Potency was inconclusive: 4.65 µM [inhibitor, partial curve].
With `CCOc1ccc2nc(NCCNC(=O)C(C)(C)C)c(C)cc2c1` the Potency was inconclusive: 16.5 µM [inhibitor, partial curve, poor fit].
With `CC(=O)c1ccc2c(c1)C1C=CCC1C(c1ccc(S(=O)(=O)N3CCOCC3)cc1)N2` (centres undefined) the Potency was inconclusive: 4.65 µM [inhibitor, partial curve].
With `CCN(CC)Cc1c(O)ccc2c(=O)c(-c3ccc4c(c3)OCCO4)coc12` the Potency was inconclusive: 18.5 µM [inhibitor, single point].
For `O=C(Cc1ccc(Cl)cc1)NCCS(=O)(=O)N1CCN(c2ccccc2F)CC1`, the Potency was inconclusive: 18.5 µM [inhibitor, single point].
For `CCCNC(=O)NC(=O)COC(=O)c1ccc(S(=O)(=O)N(C)c2ccccc2OC)cc1`, the Potency was “inactive”.
In the case of `Cc1ccccc1Oc1ncnc2sccc12`, the Potency is reported as “inactive”.
In the case of `CCOC(=O)c1c(NC(=O)c2ccc(S(=O)(=O)N3CCOCC3)cc2)sc2c1CCN(C)C2`, the Potency is reported as active: 11.7 µM.
With `CCOc1ccc(CNC(=O)CN2C(=O)C(c3ccccc3)Oc3cccnc32)cc1` (centres undefined) the Potency was inconclusive: 10.4 µM [inhibitor, partial curve].
For `c1cncc(CNc2ncnc3ccc(-c4ccoc4)cc23)c1`, the Potency was “inactive and inconclusive: 16.5 µM [inhibitor, single point]”.
In the case of `COc1ccc(C2c3ccc(O)cc3Oc3ncn(CCCO)c(=N)c32)cc1` (centres undefined), the Potency is reported as inconclusive: 18.5 µM [inhibitor, single point].
With `CCN(CC)CCN(C(=O)c1ccc2c(c1)CCCC2)c1nc2cc(OC)c(OC)cc2s1` the Potency was inconclusive: 13.1 µM [inhibitor, partial curve, poor fit].
In the case of `COc1ccc(CNC(=O)CCS(=O)(=O)c2ccc3c(c2)NC(=O)CS3)cc1`, the Potency is reported as “inactive”.
With `O=C(CSc1ccc2nnc(-c3cccc(F)c3)n2n1)N1CCCc2ccccc21` the Potency was “inactive”.
For `CC(=O)Nc1ccc(NC(=O)C2CCCN(c3nnc(-n4cccc4)s3)C2)cc1` (centres undefined), the Potency was inconclusive: 0.0828 µM [inhibitor, full curve, poor fit].
With `c1ccc(COC2CCCN(Cc3nc(-c4cnccn4)no3)C2)nc1` (centres undefined) the Potency was inconclusive: 2.33 µM [inhibitor, partial curve, poor fit].
For `c1csc(-c2ncc3ccccn23)c1`, the Potency was “inactive”.
With `CC1CC1C(=O)Nc1ccc(S(=O)(=O)N2CCCCC2)cc1` (centres undefined) the Potency was inconclusive: 18.5 µM [inhibitor, single point].
In the case of `CCn1cc(C2=NOC(C(=O)Nc3cccc(C(C)=O)c3)C2)c(C)n1` (centres undefined), the Potency is reported as “inactive”.
With `CCCN(CCC)c1nc(Cl)nc(NCc2ccco2)n1` the Potency was inconclusive: 14.7 µM [inhibitor, partial curve].
For `O=C(/C=C/c1ccc(Cl)cc1Cl)Nc1ccc(CN2CCOCC2)cc1`, the Potency was inconclusive: 9.28 µM [inhibitor, single point].
In the case of `Cc1cc(O)c(CN2CC=C(c3ccccc3)CC2)cc1C(C)C`, the Potency is reported as active: 0.294 µM.
For `O=[N+]([O-])c1ccc(Oc2ccc(F)cc2)c2ccncc12`, the Potency was active: 9.28 µM.
For `Clc1ccc(COn2c(-c3ccccc3)nc3ccccc32)cc1`, the Potency was inconclusive: 6.57 µM [inhibitor, partial curve].
In the case of `CCOC(=O)N1CCN(C(=O)/C(=C/c2ccc(Br)cc2)NC(=O)c2ccc(OC)cc2)CC1`, the Potency is reported as inconclusive: 9.28 µM [inhibitor, partial curve, poor fit].
In the case of `CCOc1cccc(C(=O)Nc2nc(-c3ccc(S(=O)(=O)N4CCOCC4)cc3)cs2)c1`, the Potency is reported as active: 5.22 µM.
In the case of `CC(C)CCOC(=O)C[N+](C)(C)CCOC1CC2CCC1(C)C2(C)C` (centres undefined), the Potency is reported as inconclusive: 0.0165 µM [inhibitor, full curve, poor fit].
With `CCOc1ccc(NC(=S)Nc2ccccc2C2(C)CC2)cc1` the Potency was inconclusive: 10.4 µM [inhibitor, partial curve, poor fit].
In the case of `COc1ccccc1CN1CCCCC1c1cccnc1` (centres undefined), the Potency is reported as “inactive”.
In the case of `CCc1ccc2[nH]c(=O)c(CN(Cc3ccccc3OC)Cc3nnnn3Cc3ccco3)cc2c1`, the Potency is reported as active: 4.65 µM.
For `O=C(Nc1ccccc1C(=O)NCc1cccnc1)c1ccc(Cl)cc1Cl`, the Potency was inconclusive: 11.7 µM [inhibitor, single point].
In the case of `CCc1[nH]c(C(=O)O)c(C)c1C(=O)OC`, the Potency is reported as inconclusive: 11.7 µM [inhibitor, single point].
For `CCCCCCCCCCCCCCCC(=O)OC[C@H](O)[C@H]1OC[C@@H](O)[C@@H]1O`, the Potency was “inactive”.
For `Cc1ccc(OCCC(=O)OCC(=O)Nc2ccc3c(c2)OCO3)cc1`, the Potency was “inactive”.
In the case of `CC1(C)CC(NC(=O)c2sc3cc(Cl)ccc3c2Cl)CC(C)(C)N1`, the Potency is reported as inconclusive: 18.5 µM [inhibitor, single point].
For `COc1ccccc1N1CC(C(=O)Nc2ccccc2N2CCCC2)CC1=O` (centres undefined), the Potency was “inactive”.
In the case of `CCN1CCN(CCNC(=O)c2ccc3c(c2)NC(=O)/C(=C\c2ccc(OC)c(OC)c2)S3)CC1`, the Potency is reported as active: 9.28 µM.
In the case of `CN(c1ccccc1C(=O)Nc1ccc(S(=O)(=O)N2CCOCC2)cc1)S(=O)(=O)c1ccccc1`, the Potency is reported as inconclusive: 18.5 µM [inhibitor, single point].
